For some of these results: What follows is the remainder of the data, with few or none of the strong results. The list shows a part of the results, in another mix than the full data.
Assays:
Conditions in all cases: concentration: 1 μM,replicates: in singlicate; n = 1
STK33 = system: STK33
STK35 = system: STK35
STK36 = system: STK36
STK39 = system: STK39
SYK = system: SYK
SgK110 = system: SgK110
TAK1 = system: T1, TAK1
T1 construct: gene MAP3K7

TAOK1 = system: TAOK1
TAOK2 = system: TAOK2
TAOK3 = system: TAOK3
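Also: KINOMEscan kinase panel screen.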

Row | SMILES | %Inh (STK33) | %Inh (STK35) | %Inh (STK36) | %Inh (STK39) | %Inh (SYK) | %Inh (SgK110) | %Inh (TAK1) | %Inh (TAOK1) | %Inh (TAOK2) | %Inh (TAOK3)
1 | O=C1NC(=O)C(c2ccccc2Cl)=C1Nc1ccccc1 [SB-376715] | 0% | 0% | 7% | 0% | 10% | 0% | 0% | 1% | 3% | 4%
2 | O=C1NC(=O)C(c2ccc(Cl)cc2)=C1Nc1ccc(O)c(Cl)c1 [SB-405367] | 0% | 0% | 0% | 13% | 3% | 35% | 18% | 0% | 0% | 0%
3 | O=C1NC(=O)C(c2ccccc2)=C1Nc1cc(Cl)c(O)c(Cl)c1 [SB-390530] | 0% | 0% | 0% | 60% | 0% | 0% | 32% | 64% | 0% | 0%
4 | Cc1ccc(C)c(Oc2nccc(-c3c(-c4ccc(F)cc4)ncn3C3CCNCC3)n2)c1.O=C(O)C(F)(F)F.O=C(O)C(F)(F)F.O=C(O)C(F)(F)F [SB-284852] | 1% | 0% | 11% | 0% | 15% | 7% | 0% | 0% | 27% | 0%
5 | O=C1NC(=O)C(c2ccccc2)=C1Nc1ccc(Cl)c(C(=O)O)c1 [SB-390532] | 0% | 0% | 0% | 7% | 0% | 10% | 0% | 0% | 0% | 0%
6 | O=C1NC(=O)C(c2ccc(Cl)cc2)=C1Nc1ccccc1 [SB-317661] | 16% | 0% | 0% | 20% | 0% | 0% | 0% | 0% | 50% | 3%
7 | COc1ccc(C2=C(Nc3cccc(Cl)c3)C(=O)NC2=O)cc1 [SB-326892] | 0% | 0% | 0% | 0% | 0% | 0% | 0% | 0% | 12% | 0%
8 | O=C1NC(=O)C(c2ccc(Cl)cc2)=C1Nc1cccc(C(=O)O)c1 [SB-360737] | 0% | 0% | 0% | 24% | 5% | 0% | 0% | 0% | 8% | 0%
9 | O=C(O)c1ccc(-c2nc(-c3ccc(F)cc3)c(-c3ccncc3)[nH]2)cc1 [SB-202620] | 12% | 6% | 48% | 29% | 18% | 43% | 9% | 0% | 55% | 2%
10 | Cc1cc(C)cc(Oc2nccc(-c3c(-c4ccc(F)cc4)ncn3C3CCNCC3)n2)c1.O=C(O)C(F)(F)F.O=C(O)C(F)(F)F.O=C(O)C(F)(F)F [SB-284851] | 0% | 0% | 0% | 0% | 27% | 0% | 0% | 0% | 38% | 0%
11 | O=C1NC(=O)C(c2ccccc2Cl)=C1Nc1cccc(C(=O)O)c1 [SB-390526] | 0% | 0% | 3% | 6% | 9% | 0% | 4% | 13% | 5% | 0%
12 | CS(=O)(=O)c1ccccc1-c1nc(-c2ccc(F)cc2)c(-c2ccncc2)[nH]1 [SB-213663] | 14% | 0% | 43% | 34% | 7% | 30% | 43% | 0% | 0% | 0%
13 | CSc1ccc(NC2=C(c3cccc(Cl)c3)C(=O)NC2=O)cc1 [SB-341528] | 0% | 0% | 0% | 0% | 0% | 0% | 52% | 0% | 0% | 3%
14 | O=C1NC(=O)c2c1c(-c1ccccc1)cc1[nH]c3ccc(O)cc3c21 | 46% | 49% | 1% | 27% | 71% | 0% | 51% | 0% | 0% | 6%
15 | O=C1NC(=O)C(c2ccc(Cl)cc2)=C1Nc1cccc(O)c1 [SB-333613] | 23% | 1% | 0% | 35% | 9% | 0% | 26% | 26% | 3% | 24%
16 | COc1cccc(C2=C(Nc3ccc(SC)cc3)C(=O)NC2=O)c1 [SB-331032] | 0% | 0% | 20% | 14% | 26% | 15% | 20% | 28% | 19% | 19%
